Measurements taken from PMC4981545 (Cell reports, 2016).

How the values were obtained:
[1] = biological target: GST-tagged HPV-18 E2 (18E2), immobilized (HPV-18); assay: pull-down
[2] = biological target: GST-tagged HPV-16 E2 (16E2), immobilized (HPV-16); assay: pull-down

B1: FLAG-tagged human BRD4 region […], bacterially expressed (fragment a) (domain or fragment)
chain: not shown
- binding result [1]: binds
- binding result [2]: binds
